Results from the RNAGym collection of RNA variant scans (doi:10.1101/gad.245936.114).
Variants at the floor of the assay are shown more often than the library holds them.

B1: tRNA (parent)
chain: CUCUCGGUAGCCAAGUUGGUUUAAGGCGCAAGACUUUAAUUUAUCACUACGAAAUCUUGAGAUCGGGCGUUCGACUCGCCCCCGGGAGAUUUUUUCCUCGAGCAA

Variants of: B1
Assay: nonsense suppression (GFP-seq) (ratio to wild type); higher = more function; SUP4oc tRNA, yeast GFP reporter sort-seq
Outline: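 Raffinose/galactose medium with 80 mg/L adenine was used to grow yeast carrying genome-integrated tRNA variants (~3% random-mutation library), RFP, and a galactose-driven GFP ochre reporter. Cells went into GFP/RFP bins, which were Illumina-sequenced, and variants with ≥100 reads and ≥30 cells were scored. Nonsense suppression (GFPSEQ) is the per-bin median GFP/RFP weighted by estimated cell share and expressed relative to the unmutated parent tRNA.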

| Variant | nonsense suppression |
| --- | --- |
| A23G A54U C72A | ≤ 0.026 |
| A23G A60G | 0.0474 |
| A23G A62C C81G | ≤ 0.026 |
| A23G A62U | ≤ 0.026 |
| A23G A62U C82G G84U | ≤ 0.026 |
| A23G C34G A54G U70C C82A | ≤ 0.026 |
| A23G C34G C82A | ≤ 0.026 |
| A23G C56A U63C A74C G85C | ≤ 0.026 |
| A23G C64A G84A | ≤ 0.026 |
| A23G C72A A87U | ≤ 0.026 |
| A23G C72G | ≤ 0.026 |
| A23G C75A G78C | ≤ 0.026 |
| A23G C77A | ≤ 0.026 |
| A23G G26U | ≤ 0.026 |
| A23G G26U A33G C34U G59A | ≤ 0.026 |
| A23G G28A C64A | ≤ 0.026 |
| A23G G28A G32C | ≤ 0.026 |
| A23G G28A G59C C82G | ≤ 0.026 |
| A23G G28A U76C | ≤ 0.026 |
| A23G G28C C64G G69A U70G | ≤ 0.026 |
| A23G G32A | ≤ 0.026 |
| A23G G32C A60U | ≤ 0.026 |
| A23G G32U U76G | ≤ 0.026 |
| A23G G59A C82G | ≤ 0.026 |

| Variant | nonsense suppression |
| --- | --- |
| A23G G59A G69A | ≤ 0.026 |
| A23G G66U | ≤ 0.026 |
| A23G G67C | ≤ 0.026 |
| A23G G67C G73C | ≤ 0.026 |
| A23G G67U | ≤ 0.026 |
| A23G G73A | 0.0291 |
| A23G G73C | ≤ 0.026 |
| A23G G78U | 0.0956 |
| A23G G84A | ≤ 0.026 |
| A23G G84U G86U | ≤ 0.026 |
| A23G G85U | 0.0779 |
| A23G G88C | ≤ 0.026 |
| A23G U35G U55C G61A | ≤ 0.026 |
| A23G U55A | ≤ 0.026 |
| A23G U55A C82A | ≤ 0.026 |
| A23G U55C | 0.0273 |
| A23G U55C U58A | ≤ 0.026 |
| A23G U58G | ≤ 0.026 |
| A23G U63A | 0.0418 |
| A23G U63G G65C U71A | ≤ 0.026 |
| A23G U63G G69C | ≤ 0.026 |
| A23G U70C U71G | ≤ 0.026 |
| A23G U70G | ≤ 0.026 |
| A23U A24G | ≤ 0.026 |

| Variant | nonsense suppression |
| --- | --- |
| A23U A24G U63G C75U | ≤ 0.026 |
| A23U A30C | ≤ 0.026 |
| A23U A30C A60U G88C | ≤ 0.026 |
| A23U A30C C56U | ≤ 0.026 |
| A23U A30C C81U G84A | ≤ 0.026 |
| A23U A30G C75U | ≤ 0.026 |
| A23U A31U | ≤ 0.026 |
| A23U A31U U58C G66A | ≤ 0.026 |
| A23U A33G G59A | ≤ 0.026 |
| A23U A33G G66U | ≤ 0.026 |
| A23U A33G G73C | ≤ 0.026 |
| A23U A33U | ≤ 0.026 |
| A23U A33U A60C G88A | ≤ 0.026 |
| A23U A54U C56U G73C | ≤ 0.026 |
| A23U A60G | 0.0537 |
| A23U A60G U63A C81U | ≤ 0.026 |
| A23U A62C G69A C72G | ≤ 0.026 |
| A23U A62U C79G | ≤ 0.026 |
| A23U A74C | ≤ 0.026 |
| A23U A74G G86A | ≤ 0.026 |
| A23U A87G | ≤ 0.026 |
| A23U C27A | ≤ 0.026 |
| A23U C27U | ≤ 0.026 |
| A23U C27U C29A G85A | ≤ 0.026 |

| Variant | nonsense suppression |
| --- | --- |
| A23U C29A U57G | ≤ 0.026 |
| A23U C29U | 0.112 |
| A23U C34U G67C | ≤ 0.026 |
| A23U C56A C75A | ≤ 0.026 |
| A23U C56G | ≤ 0.026 |
| A23U C64A | ≤ 0.026 |
| A23U C64U G66C A87U | ≤ 0.026 |
| A23U C72U | ≤ 0.026 |
| A23U C79A G85A | ≤ 0.026 |
| A23U C80G G84C | ≤ 0.026 |
| A23U C82G | ≤ 0.026 |
| A23U G25A | ≤ 0.026 |
| A23U G25C C34A U55C | ≤ 0.026 |
| A23U G25U | ≤ 0.026 |
| A23U G26A | ≤ 0.026 |
| A23U G32C U76C | ≤ 0.026 |
| A23U G61A C75G G86U | ≤ 0.026 |
| A23U G65A | ≤ 0.026 |
| A23U G65C | ≤ 0.026 |
| A23U G65C C72A | ≤ 0.026 |
| A23U G67A A89U | ≤ 0.026 |
| A23U G69U | ≤ 0.026 |
| A23U G73C C77U | ≤ 0.026 |
| A23U G73U G78U C83G | ≤ 0.026 |

| Variant | nonsense suppression |
| --- | --- |
| A23U G78A | ≤ 0.026 |
| A23U G78C | ≤ 0.026 |
| A23U G78U | 0.0382 |
| A23U G84A | ≤ 0.026 |
| A23U G84U G86U | ≤ 0.026 |
| A23U G86U | ≤ 0.026 |
| A23U U57A | ≤ 0.026 |
| A23U U57A C64A U70A | ≤ 0.026 |
| A23U U57C G61C U76C | ≤ 0.026 |
| A23U U57C G73U | ≤ 0.026 |
| A23U U70G | ≤ 0.026 |
| A23U U71C | ≤ 0.026 |
| A24C | 1.13 |
| A24C A30C C34A | ≤ 0.026 |
| A24C A30C G66U C77A G86A | ≤ 0.026 |
| A24C A30G A31C U76C | ≤ 0.026 |
| A24C A30U G32U C82A | ≤ 0.026 |
| A24C A31U A89U | ≤ 0.026 |
| A24C A33G C64G G69U | ≤ 0.026 |
| A24C A33G G67U C75A | ≤ 0.026 |
| A24C A33U C72U A74C | ≤ 0.026 |
| A24C A33U G59U | ≤ 0.026 |
| A24C A54C G61A | ≤ 0.026 |
| A24C A62C | ≤ 0.026 |

| Variant | nonsense suppression |
| --- | --- |
| A24C A87C | ≤ 0.026 |
| A24C A87U | 0.0833 |
| A24C C27G U35A G59C A74U G85U | ≤ 0.026 |
| A24C C27U U58C | ≤ 0.026 |
| A24C C29G A54G | ≤ 0.026 |
| A24C C29G C64G G65U C75G | ≤ 0.026 |
| A24C C29G C79G | ≤ 0.026 |
| A24C C29G U76A | ≤ 0.026 |
| A24C C29U | 0.751 |
| A24C C34G A54C A60C | ≤ 0.026 |
| A24C C34G C56U U70G | ≤ 0.026 |
| A24C C34G C72G | ≤ 0.026 |
| A24C C34G U63G U76C | ≤ 0.026 |
| A24C C56A A62C | ≤ 0.026 |
| A24C C56A U63C G88C | ≤ 0.026 |
| A24C C56U G78C | ≤ 0.026 |
| A24C C64G G78C | ≤ 0.026 |
| A24C C64U G67C C79U | ≤ 0.026 |
| A24C C68A | ≤ 0.026 |
| A24C C72A | ≤ 0.026 |
| A24C C72U | 0.0288 |
| A24C C72U G84A | ≤ 0.026 |
| A24C C79U | 0.209 |
| A24C C80A | ≤ 0.026 |

| Variant | nonsense suppression |
| --- | --- |
| A24C C82G A87C | ≤ 0.026 |
| A24C C83G | ≤ 0.026 |
| A24C G25A | ≤ 0.026 |
| A24C G25C C75U | ≤ 0.026 |
| A24C G25U A31G | ≤ 0.026 |
| A24C G25U C56G A60U | ≤ 0.026 |
| A24C G25U C82G | ≤ 0.026 |
| A24C G25U G28U | ≤ 0.026 |
| A24C G25U U63C G73U | ≤ 0.026 |
| A24C G26A A30U C80U C81G | ≤ 0.026 |
| A24C G26A A60U | ≤ 0.026 |
| A24C G26A U58C G66A C79U | ≤ 0.026 |
| A24C G26U | 0.038 |
| A24C G28A C29A | ≤ 0.026 |
| A24C G28C | 0.201 |
| A24C G28U | ≤ 0.026 |
| A24C G32A | ≤ 0.026 |
| A24C G32U U71C | ≤ 0.026 |
| A24C G59A | ≤ 0.026 |
| A24C G59C | ≤ 0.026 |
| A24C G65U C68G G86U | ≤ 0.026 |
| A24C G66A C77G | ≤ 0.026 |
| A24C G67C U70G C79G | ≤ 0.026 |
